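Test compounds were applied to cells in 96-well plates for 48 hours at 5 doses. GI50: concentration for 50% inhibition of growth.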 Calls of active or inactive are those of the source. Cut-off read from the data, not from the text of the source: active = GI50 up to about 1.1 µM and inactive = higher.

This test has as its system NCI-H322M. The test can be described thus: growth of human tumour cells (NCI), 48 h.
Consider `c1ccc2c(c1)C1=NCCN1c1ccccc1-2`, for which the GI50 was inactive: 2.42 µM.

In the case of `O=C(c1ccc([N+](=O)[O-])cc1)N1CCCC1`, the GI50 is inactive: > 100 µM.

`O=C1c2cc(Br)ccc2-c2ccc3c4ccc5c6c(ccc(c7ccc1c2c73)c64)C(=O)c1cc(Br)ccc1-5`: the GI50 is inactive: > 100 µM.

For `Cc1nc2ccccc2c(=O)n1NC(=O)c1ccc([N+](=O)[O-])cc1`, the GI50 was inactive: > 100 µM.

Consider `CC1CN=C(NCc2ccccc2)S1` (stereo unspecified), for which the GI50 is inactive: > 100 µM.

On to `N#CC12C(=O)N3C(=NC(c4ccccc4)NC3c3ccccc3)C1(C#N)C(c1ccccc1)NC1=C2CCC1` (stereo unspecified), for which the GI50 was inactive: > 100 µM.

For the molecule `COC(=O)C(I(OS(=O)(=O)c1ccc(C)cc1)c1ccccc1)=P(c1ccccc1)(c1ccccc1)c1ccccc1`, the GI50 was inactive: 29.2 µM.

`COc1cc(C2SCC(=O)N2c2ccc(NC(=O)c3ccc(N4C(=O)CSC4c4cc(OC)c(OC)c(OC)c4)cc3)cc2)cc(OC)c1OC` (stereo unspecified): the GI50 is inactive: > 100 µM.

On to `CCOC(=O)NC(=O)c1cn(CCCOC(=O)CCCCCCCCCCC(=O)OCCCn2cc(C(=O)NC(=O)OCC)c(=O)[nH]c2=O)c(=O)[nH]c1=O`, for which the GI50 was inactive: > 100 µM.

`CC(C)(C)N/N=C(\C(=O)Nc1cccc(Cl)c1)C1C(=O)Nc2ccccc2[S+]1[O-]` (stereo unspecified): the GI50 is inactive: > 100 µM.

For `CCN(CC)c1ccc2cc(C(=O)Nc3ccccn3)c(=N)oc2c1`, the GI50 was inactive: > 100 µM.

Consider `Cc1nc(N(C(C)C)C(C)C)c(C(C)C)o1`, for which the GI50 was inactive: > 100 µM.

Regarding `CN(C)CCCNC(CC#N)CCC#N` (stereo unspecified), the GI50 was inactive: > 10 µM.

With `O=[N+]([O-])c1ccc2nc(/C(=N/Nc3ccccc3)C(O)c3ccco3)c(O)nc2c1` (stereo unspecified), the GI50 is inactive: > 100 µM.

In the case of `Cc1ccc(C2=C(c3ccc(C)cc3)C(c3ccc(C)cc3)=C(c3ccc(C)cc3)C2=O)cc1`, the GI50 was inactive: > 100 µM.

`O=C(/C=C/c1cc2ccccc2o1)N1CCN(c2ccccn2)CC1`: the GI50 is inactive: > 100 µM.

Turning to `Cc1ccccc1C(=O)Oc1ccc(O)cc1`, the GI50 was inactive: > 100 µM.

On to `CC1CC(N)=C(C#N)C1(C#N)C#N` (stereo unspecified), for which the GI50 is inactive: > 100 µM.

In the case of `CN(C)/C=N/c1nc2ncn(CCOC(=O)c3ccccc3)c2c(=O)[nH]1`, the GI50 is inactive: > 100 µM.

On to `Clc1ccc(/C(=C\c2ccccc2)Cn2ccnc2)cc1`, for which the GI50 was inactive: 27.2 µM.

As for `COC(=O)c1ccccc1C#CCCCOS(C)(=O)=O`, the GI50 was inactive: > 10 µM.

Take `O=C1c2ccccc2C(O)(C(=O)O)C1(O)CC=C(Cl)Cl` (stereo unspecified): the GI50 was inactive: > 125 µM.

For the molecule `N/C(=C\c1ccc(/C=C(\NC(=O)c2ccccc2)c2nc3c([nH]2)C(=O)c2ccccc2C3=O)cc1)c1nc2c([nH]1)C(=O)c1ccccc1C2=O`, the GI50 was inactive: 16 µM.

Regarding `CC(=O)O[C@H]1CCC2[C@@H]3CCC4=C(O)C(=O)C(C#N)C[C@]4(C)C3CC[C@@]21C` (stereo partly specified), the GI50 was inactive: 18.1 µM.

Consider `COC(=O)/N=C(\NC(=O)OC)Nc1ccc(Oc2ccccc2)cc1NC=O`, for which the GI50 is active: 0.551 µM.

Regarding `O=c1oc2ccccc2c(-c2ccc(O)cc2)c1Oc1ccccc1`, the GI50 was inactive: 17 µM.

As to `COc1cc(C2C(Cl)C(=O)N2NC(=O)c2ccc(N)cc2)ccc1O` (stereo unspecified), the GI50 is inactive: 25.8 µM.

With `Cc1ccc(/C=N/Nc2nc3ccccc3s2)s1`, the GI50 was inactive: > 100 µM.

As for `CCOC(=O)/C(C(N)=O)=C(/O)c1cnccn1`, the GI50 was inactive: > 100 µM.

As to `O=C1/C(=C/c2ccc3c(c2)OCCO3)CCC/C1=C\c1ccc2c(c1)OCCO2`, the GI50 was inactive: 52 µM.

Take `CC(=O)C1C(c2ccc(N(C)C)cc2)c2cc3c(cc2OC1(C)O)OCO3` (stereo unspecified): the GI50 was inactive: 54.8 µM.

Consider `O=S(=O)(c1ccccc1)c1ccc(-c2nc(-c3ccc4c(c3)Sc3ccccc3S4)cs2)cc1`, for which the GI50 was inactive: 37.2 µM.

As to `COc1ccc(/N=C(/SS/C(=N/c2ccc(OC)cc2)c2ccc([N+](=O)[O-])o2)c2ccc([N+](=O)[O-])o2)cc1`, the GI50 is inactive: 1.45 µM.

Regarding `O=C(O)c1ccc(C(=O)O)c(C(=O)Nc2ccc3c(c2)C(=O)c2ccccc2-3)c1`, the GI50 is inactive: > 100 µM.

As for `Brc1ccc(N2C[N+](c3ccc(Br)cc3)=NC(c3ccccc3)=N2)cc1`, the GI50 was inactive: 18.2 µM.

In the case of `Cc1c(CN2CCN(C)CC2)c(CN2CCN(C)CC2)c(C)n1-c1ccc(Cl)cc1`, the GI50 was inactive: 35.6 µM.

With `O=C(NCc1ccccc1Cl)c1c(O)c2ccccc2[nH]c1=O`, the GI50 was inactive: > 100 µM.

Take `CN(C)c1nc(NN)c2c(-c3ccccc3)c(-c3ccccc3)oc2n1`: the GI50 is inactive: > 100 µM.

With `Cc1nc(N)sc1/N=N/c1cc(Cl)c([N+](=O)[O-])cc1Cl`, the GI50 was inactive: 14.4 µM.

`Oc1ccc(Cl)cc1-c1nc(S)nc(-c2ccccc2)c1Cl`: the GI50 is inactive: > 100 µM.

On to `COc1ccc(/C=C/C(=O)c2cc(C(C)(C)C)c(O)c(C(C)(C)C)c2)cc1OC`, for which the GI50 was inactive: 24.2 µM.

`CC1(C)CC(=O)c2c(nc(SSc3nc4c(c(-c5ccccc5)c3C#N)C(=O)CC(C)(C)C4)c(C#N)c2-c2ccccc2)C1`: the GI50 is inactive: > 10 µM.

Turning to `COc1ccc(OC)c(C2CCCc3c2cnc2nc(N)nc(N)c32)c1` (stereo unspecified), the GI50 was active: < 0.0416 µM.

For the molecule `CCCc1nn(C)c(CCC(=O)N(Cc2ccccc2)Cc2ccccc2)c1CC`, the GI50 was inactive: > 100 µM.

Regarding `C=C1C(=O)OC2CC3(C)OC3CC/C(C)=C/C(OC(C)=O)C12` (stereo unspecified), the GI50 is inactive: 14.6 µM.

`CC12C=CC(C)(C3C(=O)C4C(C(=O)C31)C1(C)C=CC4(C)[S+]1[O-])[S+]2[O-]` (stereo unspecified): the GI50 is inactive: > 100 µM.

With `CC1=CC2=C(C#N)C(=O)OC2(C)C(c2ccccc2)C1` (stereo unspecified), the GI50 is inactive: > 100 µM.

With `Cc1cc(C)cc(NC(=O)CCC(=O)C2CCC/C2=N\NC(=O)C(=O)NN)c1` (stereo unspecified), the GI50 was inactive: > 100 µM.

On to `O=S(=O)(O)c1ccc(/N=N/c2nc(C(F)(F)F)c(C(F)(F)F)[nH]2)cc1`, for which the GI50 is inactive: 31.6 µM.

For the molecule `COC(=O)c1c(O)ccc(O)c1C(C(C)=O)C(C)=O`, the GI50 is inactive: > 100 µM.

Regarding `Cc1ccnc(NS(=O)(=O)c2ccc(NC(=O)c3ccc4nc5ccccc5c(Nc5ccc(S(=O)(=O)Nc6nccc(C)n6)cc5)c4c3)cc2)n1`, the GI50 was inactive: 50.6 µM.

`O=c1[nH]nc(Nc2ccc(Cl)cc2)c2nnn(C3CCCCC3)c12`: the GI50 was inactive: > 100 µM.

For the molecule `CCOC(=O)C(C#N)(Cc1c[nH]c2ccccc12)NC(C)=O` (stereo unspecified), the GI50 is inactive: > 100 µM.

For the molecule `N=c1oc2ccc3ccccc3c2cc1-c1nc(O)c2ccccc2n1`, the GI50 is inactive: 32.5 µM.

For `CN1CC=C(OP(=O)(NCc2ccccc2)N(CCCl)CCCl)CC1` (stereo unspecified), the GI50 is inactive: > 100 µM.

With `CC[C@H](C)C1=C(OC(C)=O)[N@+]2([O-])Oc3ccc(-c4c(OC(C)=O)c(OC(C)=O)c(-c5ccc(OC(C)=O)cc5)c(OC(C)=O)c4OC(C)=O)cc3O[C@]2([C@@H](C)CC)C(=O)N1OC(C)=O`, the GI50 was inactive: 12.7 µM.

On to `COc1ccc([N+](=O)[O-])c2c(NCC(O)CO)ccnc12` (stereo unspecified), for which the GI50 was inactive: 98.4 µM.

For the molecule `CC(C)(C)OC(=O)n1c(Cl)c(C=O)c2ccccc21`, the GI50 is inactive: 19.8 µM.

For `Cc1cc(N(CCC#N)CCC#N)ccc1C(/N=N\c1ccc(C(=O)O)cc1)=N\NC(=O)c1cc(Cl)ccc1O`, the GI50 is inactive: 35.8 µM.

Regarding `CCN(C)c1nc(N(C)CC)c2nc(N(C)CC)nc(N(C)CC)c2n1`, the GI50 is inactive: > 100 µM.

Consider `O=c1[nH]c2nc[nH]c2c(=O)n1C1CCCCC1`, for which the GI50 is inactive: > 100 µM.

Take `CCN(CC)/[N+]([O-])=N/OC`: the GI50 is inactive: > 100 µM.

Take `CCO[C@@H]1C2C=CC(C2)[C@H]1[N+](=O)[O-]` (stereo partly specified): the GI50 was inactive: > 100 µM.

Turning to `CC(=O)C(=Cc1ccc(C=C(C(C)=O)C(C)=O)cc1)C(C)=O`, the GI50 is inactive: 2.37 µM.

`CC(=O)O/N=C(Cl)/C(Cl)=N/OC(C)=O`: the GI50 was inactive: > 100 µM.

On to `O=C[C@]12CC=C3OC4OC5(CCCCC5)OC4[C@H]3[C@H]1C(=O)C=CC2=O` (stereo partly specified), for which the GI50 was inactive: 54.8 µM.

`Cc1ccc(/C=C2/NC(=S)SC2=O)cc1`: the GI50 is inactive: 37.2 µM.

In the case of `O=C1Nc2ccccc2N=CC1NC(=O)C(c1ccccc1)c1ccccc1` (stereo unspecified), the GI50 was inactive: > 100 µM.

Consider `C=C[C@]1(C)CC[C@]2(C)C(CC[C@@]3(C)C2C[C@H](O)[C@H](O)[C@@]3(C)O)C1` (stereo partly specified), for which the GI50 is inactive: > 100 µM.

As for `COc1ccc(CNc2cnc3cc(N)ccc3n2)cc1OC`, the GI50 is inactive: > 100 µM.

Take `N=C(N)NS(=O)(=O)c1ccc(NNc2c3ccccc3nc3ccccc23)cc1`: the GI50 is inactive: 12.6 µM.

As to `O=[N+]([O-])C(=C(Sc1ccccc1)Sc1ccccc1)C(Cl)=C(Cl)Cl`, the GI50 is inactive: 9.44 µM.

Turning to `O=c1[nH]c2cc([N+](=O)[O-])c(N/N=C/c3ccc(Cl)cc3Cl)c([N+](=O)[O-])c2[nH]1`, the GI50 is inactive: 21.4 µM.

As to `COc1cc(COC(=O)N2CCC2C(=O)O)c([N+](=O)[O-])cc1OC` (stereo unspecified), the GI50 is inactive: > 100 µM.

As for `COc1ccc2nc3ccc(OC)cc3c(SCC3CO3)c2c1` (stereo unspecified), the GI50 is inactive: 18.8 µM.

Take `COc1cc2c(cc1OC(=O)CC(C)O)C1C(OC2=O)C(OC(C)=O)C=C2CCN(C)[C@H]21` (stereo partly specified): the GI50 is inactive: 34.4 µM.

As for `O=C(O)C[C@H]1CCCCC12CCOC2=O` (stereo partly specified), the GI50 was inactive: > 100 µM.

For the molecule `COC(=O)[C@]1(C)CCC[C@@]2(C)C1CCC1=CC3(C(C)C)CCC12OO3` (stereo partly specified), the GI50 was inactive: > 100 µM.

Consider `CC1(C)CC(O)C(C)(C)[C@@H](O)C1` (stereo partly specified), for which the GI50 was inactive: > 100 µM.

Regarding `CC1CC[C@@]23CCC4(C)[C@@](C=CC5[C@@]6(C)CCC(=O)C(C)(C)C6CC[C@]54C)(OC2=O)[C@@H]3[C@H]1C` (stereo partly specified), the GI50 is inactive: 21.7 µM.

Take `COc1cc(CNc2ccc(SC)cc2)cc(OC)c1OC`: the GI50 is inactive: 29.6 µM.

Values taken from ChEMBL document CHEMBL1201862, “PubChem BioAssay data set” (2004).
